ChEMBL document CHEMBL4888484, “Replenishing the malaria drug discovery pipeline: Screening and hit evaluation of the MMV Hit Generation Library 1 (HGL1) against asexual blood stage Plasmodium falciparum ,using a nano luciferase reporter read-out” (2022)
Hit rate of the full screen: of about 150,000 compounds, about 540 (0.36%) showed an effect of 50% or more. This is one part of the list.

Tested on: Plasmodium falciparum
Test: Primary screen in NF54 nanoGlo assay, in single point, at 2uM, 72h; a lower Z score goes with more inhibition
Assay type: functional, Erythrocyte
Conditions: timepoint 72 hour

**Q.** Which results are given for `CN1C(=O)C(c2c[nH]c3ccc(Br)cc23)N(C)C(=O)C1c1c[nH]c2ccc(Br)cc12` (stereo not drawn)?
**A.** % Inhibition: -17%; Z score: 2.03

**Q.** How did the “% Inhibition” value turn out when `CO[C@H]1C[C@@H]1C(=O)N1CCn2c(cnc2C(F)(F)F)C1` was run?
**A.** 3%

**Q.** And the Z score?
**A.** -0.26

**Q.** Which “% Inhibition” value does the source give for `Cn1cc(-c2nc([C@@H]3COCCN3Cc3ccc(F)cc3)no2)cn1` here?
**A.** 5%

**Q.** What about the Z score of the same compound?
**A.** -0.69

**Q.** `COCCOc1nc(-c2cccs2)n(-c2ccc(NC(=O)c3ccc(F)cc3)cc2)n1` was tested. Which “% Inhibition” value did it give?
**A.** -6%

**Q.** And the Z score?
**A.** 0.88

**Q.** Which “% Inhibition” value does the source give for `Cc1c([C@H]2CC(=O)Nc3n[nH]c(C4CCC4)c32)c(=O)n(-c2ccccc2)n1C` here?
**A.** -12%

**Q.** What about the Z score of the same compound?
**A.** 2.51

**Q.** What does the source list for `CO[C@H]1C[C@@H](O)C12CCN(C(=O)Cc1ccc(CO)cc1)CC2`?
**A.** % Inhibition: -23%; Z score: 2.7

**Q.** With `O=C(CN1CCOCC1)N1CCN(C(=O)Nc2cccc3ccccc23)CC1` as the compound, how does the “% Inhibition” value read?
**A.** -3%

**Q.** What about the Z score of the same compound?
**A.** 0.5

**Q.** How did the “% Inhibition” value turn out when `CC(C)n1ccc(CC(=O)N2CCCC[C@@H]2CS(C)(=O)=O)n1` was run?
**A.** -1%

**Q.** And the Z score?
**A.** 0.08

**Q.** Which results are given for `CCN1CCN(C(=O)[C@H]2CCc3ncc(-c4ccc(OC)cc4)n3C2)CC1`?
**A.** % Inhibition: -7%; Z score: 1.3

**Q.** `CCC[C@]1(CO)CCCN1C(=O)c1ccc(S(=O)(=O)NC2CC2)cc1` was tested. Which “% Inhibition” value did it give?
**A.** -11%

**Q.** And the Z score?
**A.** 1.59

**Q.** With `CN(C)S(=O)(=O)CCN1CC(c2ccccc2)(c2ccccc2)CCC1=O` as the compound, how does the “% Inhibition” value read?
**A.** -13%

**Q.** And the Z score?
**A.** 1.23

**Q.** How did the “% Inhibition” value turn out when `CC1CCN(C(=O)NCc2nccs2)C(C)C1` (stereo not drawn) was run?
**A.** -8%

**Q.** And the Z score?
**A.** 0.89

**Q.** `Cc1c(Cl)cccc1S(=O)(=O)N1C[C@H]2CC[C@@H](C1)N(C)C2=O` was tested. Which “% Inhibition” value did it give?
**A.** 4%

**Q.** What about the Z score of the same compound?
**A.** -0.58

**Q.** How did the “% Inhibition” value turn out when `COc1ccc(CN2CCN3CCCC3C2C)c(OC)c1OC` (stereo not drawn) was run?
**A.** 2%

**Q.** What about the Z score of the same compound?
**A.** -0.37

**Q.** With `Cc1cnccc1CN1CCC(n2cc(Cl)cn2)CC1` as the compound, how does the “% Inhibition” value read?
**A.** -3%

**Q.** And the Z score?
**A.** 0.57

**Q.** What does the source list for `CCCN1C(=O)c2cc(C(=O)NCc3cc(Br)ccc3OC)nn2C[C@@]1(C)C(=O)NC1CCCC1`?
**A.** % Inhibition: 14%; Z score: -1.67

**Q.** What does the source list for `CC(C)(C)c1cc(CNC(=O)[C@@H]2CCC(=O)NC(=O)N2)[nH]n1`?
**A.** % Inhibition: -13%; Z score: 1.95

**Q.** How did the “% Inhibition” value turn out when `CCCn1nnnc1Cn1ncc2ccccc2c1=O` was run?
**A.** 36%

**Q.** And the Z score?
**A.** -4.79

**Q.** With `Cc1noc([C@@H]2CCCCCN2C(=O)NCCc2ccccc2)n1` as the compound, how does the “% Inhibition” value read?
**A.** -3%

**Q.** What about the Z score of the same compound?
**A.** 0.51

**Q.** With `O=C(O)c1cccc(CN2CCOCC2C2CCCO2)c1Cl` (stereo not drawn) as the compound, how does the “% Inhibition” value read?
**A.** -5%

**Q.** What about the Z score of the same compound?
**A.** 0.88

**Q.** What does the source list for `COc1ncncc1NC(=O)N1CC[C@@H](C(F)(F)F)C2(CCOCC2)C1`?
**A.** % Inhibition: -4%; Z score: 0.77

**Q.** How did the “% Inhibition” value turn out when `OCCn1cc(Nc2ccc3nnc(-c4cc(Cl)cc(Cl)c4)n3n2)cn1` was run?
**A.** 15%

**Q.** What about the Z score of the same compound?
**A.** -1.91

**Q.** How did the “% Inhibition” value turn out when `CC1CN(C(=O)c2nc(-c3ccccc3)cs2)CC[S+]([O-])C1` (stereo not drawn) was run?
**A.** -7%

**Q.** What about the Z score of the same compound?
**A.** 1.29

**Q.** What does the source list for `CCc1nc([C@@H]2CCCN2c2ncc(C#N)cc2Cl)no1`?
**A.** % Inhibition: -4%; Z score: 0.71

**Q.** Which “% Inhibition” value does the source give for `Cc1ccccc1CNC(=O)N1CCCC[C@@H]1CN1CCCC1` here?
**A.** -9%

**Q.** And the Z score?
**A.** 1.77

**Q.** Which results are given for `CC(=O)N(C)c1cccc(NC(=O)N2CC(C)C2c2ccccc2)c1` (stereo not drawn)?
**A.** % Inhibition: -4%; Z score: 0.43

**Q.** What does the source list for `COc1ccc(Oc2nccc(-c3ccccc3)c2C#N)cc1`?
**A.** % Inhibition: -6%; Z score: 0.71

**Q.** Which results are given for `CN1CCC(N(CCc2ccccc2)C(=O)c2cn3cccnc3n2)CC1`?
**A.** % Inhibition: 0%; Z score: 0.07

**Q.** How did the “% Inhibition” value turn out when `CN(C(=O)CCc1ccco1)C1CCCC1` was run?
**A.** -4%

**Q.** What about the Z score of the same compound?
**A.** 0.56

**Q.** How did the “% Inhibition” value turn out when `CCOC(=O)[C@H]1CCCN(C(=O)c2cc(-c3cccc(OC)c3)n3nc(-c4ccccc4)cc3n2)C1` was run?
**A.** 10%

**Q.** What about the Z score of the same compound?
**A.** -1.86

**Q.** Which results are given for `COc1ccc(C2=[N+]([O-])C(C)(C)C(c3ccccc3)=N2)cc1`?
**A.** % Inhibition: -10%; Z score: 1.95

**Q.** Which results are given for `CCOC(=O)N1CCC(NC(=O)c2cc(C(=O)Nc3ccc(C)c(F)c3)ccc2CO)CC1`?
**A.** % Inhibition: -7%; Z score: 1.08

**Q.** Which results are given for `COCCC1CCN(C(=O)CNC(=O)c2ccccc2C)CC1`?
**A.** % Inhibition: -14%; Z score: 2.76

**Q.** With `CN(Cc1ccn(C)c(=O)c1)Cc1ccccc1Br` as the compound, how does the “% Inhibition” value read?
**A.** -8%

**Q.** And the Z score?
**A.** 1.2

**Q.** Which results are given for `CC(C)c1nnc(Cn2c(=O)ccn2-c2ccccn2)s1`?
**A.** % Inhibition: -5%; Z score: 0.65

**Q.** `OC1CN(c2nnc(-c3ccccc3)s2)C1` was tested. Which “% Inhibition” value did it give?
**A.** -23%

**Q.** And the Z score?
**A.** 2.65

**Q.** `COC(=O)c1ccc(CN2CCN(c3cnn4c(C5CC5)nnc4c3)CC2)cc1` was tested. Which “% Inhibition” value did it give?
**A.** -6%

**Q.** What about the Z score of the same compound?
**A.** 0.66

**Q.** Which results are given for `CCCCn1nc(CC(C)C)nc1[C@@H]1CCCN1C`?
**A.** % Inhibition: -5%; Z score: 1

**Q.** With `Cc1nnc2c(=O)n(CC(=O)N[C@@H](C)c3ccc(F)cc3)c3cccnc3n12` as the compound, how does the “% Inhibition” value read?
**A.** -13%

**Q.** And the Z score?
**A.** 1.7

**Q.** Which “% Inhibition” value does the source give for `CCc1cnc(CN(C)C(=O)c2ncoc2C)s1` here?
**A.** 0%

**Q.** And the Z score?
**A.** 0.05

**Q.** With `CC(C)n1ccc(CN2CCC(S(N)(=O)=O)CC2)n1` as the compound, how does the “% Inhibition” value read?
**A.** 1%

**Q.** And the Z score?
**A.** -0.14

**Q.** Which “% Inhibition” value does the source give for `NS(=O)(=O)Cc1cc(Cl)cc(Cl)c1` here?
**A.** -9%

**Q.** And the Z score?
**A.** 0.88

**Q.** For `N#CCCN(CCC(F)(F)F)S(=O)(=O)c1cncc(Cl)c1`, which “% Inhibition” value is on record?
**A.** 5%

**Q.** What about the Z score of the same compound?
**A.** -0.66

**Q.** For `COc1ccc([C@@H]2CCCN2C(=O)c2cccnc2O)cc1OC`, which “% Inhibition” value is on record?
**A.** -9%

**Q.** What about the Z score of the same compound?
**A.** 0.79

**Q.** Which “% Inhibition” value does the source give for `COc1ccc(NC(=O)N2C[C@@H]3C[C@H](NC(=O)c4cccs4)[C@H]2C3)c(C)c1` here?
**A.** 31%

**Q.** And the Z score?
**A.** -3.55

**Q.** `COCCNc1c(C#N)c2c(c3nncn13)CN(C(C)C)CC2` was tested. Which “% Inhibition” value did it give?
**A.** -13%

**Q.** And the Z score?
**A.** 1.93

**Q.** Which results are given for `Cc1cc(F)cc(NC(=O)C(=O)Nc2ccnn2C(C)C)c1`?
**A.** % Inhibition: 6%; Z score: -1.12

**Q.** `Cc1nc(CCNC(=O)[C@H]2CC(=O)N(C)C2)cs1` was tested. Which “% Inhibition” value did it give?
**A.** 5%

**Q.** And the Z score?
**A.** -0.64

**Q.** `CN(C(=O)Cn1cc(-c2ccc(Cl)cc2)c(N2CCOCC2)n1)c1ccccc1` was tested. Which “% Inhibition” value did it give?
**A.** -14%

**Q.** And the Z score?
**A.** 1.6

**Q.** `CCN(CC)[C@H](CNC(=O)CCc1ccc2c(c1)OCCO2)Cc1ccccc1` was tested. Which “% Inhibition” value did it give?
**A.** 4%

**Q.** And the Z score?
**A.** -0.6

**Q.** With `COCC[C@H]1CCOC2(CCN(C(=O)COc3ccccc3)CC2)C1` as the compound, how does the “% Inhibition” value read?
**A.** 3%

**Q.** What about the Z score of the same compound?
**A.** -0.46

**Q.** How did the “% Inhibition” value turn out when `Cc1ccc(-c2nccn2CCS(=O)(=O)N(C)C)c2cccnc12` was run?
**A.** -17%

**Q.** What about the Z score of the same compound?
**A.** 2.58

**Q.** How did the “% Inhibition” value turn out when `CC(NC(=O)CCN1C(=O)CCC1=O)C1CCCO1` (stereo not drawn) was run?
**A.** 0%

**Q.** What about the Z score of the same compound?
**A.** -0.03

**Q.** `COc1ccc2[nH]cc(C(=O)CN3CCC4(CC3)OCCO4)c2c1` was tested. Which “% Inhibition” value did it give?
**A.** -9%

**Q.** What about the Z score of the same compound?
**A.** 1.08
